The values below come from the supplement of paper PMC10037445.

Several values for one entry are separate records, joined by “and”; a condition that tells them apart may be missing. Identical values can stand only once. Over roughly 2,900 compounds, “IRF Lucia reporter activity, fold change vs agonist alone” has its median near 0.9; the highest 2% begin near 2.8. The list shows a part of the results.

The subject of assay [1] is RAW-Dual. Briefly: IRF Lucia reporter activity, fold change vs agonist alone; cytotoxicity flag (confluency mask): not cytotoxic; higher = enhanced IRF activity. Put shortly: (§1)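 RAW-Dual macrophages were seeded in DMEM at 50,000 cells/well in 384-well plates, given 50 nL of library stock by pin tool, and given a PRR agonist 1 h later. Plates were held at 37 °C, 5% CO2 for 20 hours, after which supernatant was read for IRF by QuantiLuc luminescence and for NF-κB by QuantiBlue absorbance at 620 nm. Reporter activity is expressed as fold change over wells that received agonist alone. A well was called cytotoxic when IncuCyte confluency fell below 70% of agonist controls in both mask sets.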

Assay [2] relates to RAW-Dual. Briefly: IRF Lucia reporter activity, fold change vs agonist alone; higher = enhanced IRF activity. The conditions noted are these: library stock concentration (final ~1000-fold dilution): 10 mM, agonist: MPLA (TLR4) […]. The method, boiled down:
as §1

Assay [3] relates to RAW-Dual. Briefly: IRF Lucia reporter activity, fold change vs agonist alone; cytotoxicity flag (confluency mask): cytotoxic (confluency <70% of control); higher = enhanced IRF activity. Put shortly:
as §1

Where [4] appears, read: agonist: 3'3'-cGAMP (STING) 10 ug/mL.
The mark [5] stands for this setting: cytotoxicity flag (confluency mask): not cytotoxic.
[6] abbreviates: cytotoxicity flag (confluency mask): cytotoxic (confluency <70% of control).

As for `COc1ccc2cc(CCC(C)=O)ccc2c1` (library stock concentration (final ~1000-fold dilution): 10 mM), the entries for the “IRF Lucia reporter activity” value in the assay on RAW-Dual [1] (setting [4]) and in the assay on RAW-Dual [1] (agonist: LPS (TLR4) 0.1 ug/mL) were 0.841 and 1.11, respectively.
As for `COc1ccc2cc(CCC(C)=O)ccc2c1`, in the assay on RAW-Dual [2] (setting [5]), the “IRF Lucia reporter activity” value was determined as 1.05.
As to `CCn1cc(C(=O)O)c(=O)c2ccc(C)nc21` (library stock concentration (final ~1000-fold dilution): 10 mM), the “IRF Lucia reporter activity” value was 1.05 in the assay on RAW-Dual [1] (setting [4]) and 1.07 in the assay on RAW-Dual [1] (agonist: LPS (TLR4) 0.1 ug/mL).
Consider `CCn1cc(C(=O)O)c(=O)c2ccc(C)nc21`, for which the “IRF Lucia reporter activity” value with RAW-Dual [2] (setting [5]) turned out to be 1.1.
`CN(C)c1ccc(C(=O)NCCCCCCC(=O)NO)cc1` (library stock concentration (final ~1000-fold dilution): 10 mM): the “IRF Lucia reporter activity” value in the assay on RAW-Dual [3] (setting [4]) stood at 0.14; with RAW-Dual [3] (agonist: LPS (TLR4) 0.1 ug/mL), 0.353.
Regarding `CN(C)c1ccc(C(=O)NCCCCCCC(=O)NO)cc1`, the “IRF Lucia reporter activity” value in the assay on RAW-Dual [2] (setting [6]) was determined as 0.439.
In the case of `CC(=O)OC12COC1CC(O)C1(C)C(=O)C(O)C3=C(C)C(OC(=O)C(O)C(NC(=O)OC(C)(C)C)c4ccccc4)CC(O)(C(OC(=O)c4ccccc4)C21)C3(C)C` (stereo not drawn) (library stock concentration (final ~1000-fold dilution): 10 mM), the “IRF Lucia reporter activity” value was 0.737 with RAW-Dual [1] (setting [4]) and 0.79 with RAW-Dual [1] (agonist: LPS (TLR4) 0.1 ug/mL).
As for `CC(=O)OC12COC1CC(O)C1(C)C(=O)C(O)C3=C(C)C(OC(=O)C(O)C(NC(=O)OC(C)(C)C)c4ccccc4)CC(O)(C(OC(=O)c4ccccc4)C21)C3(C)C` (stereo not drawn), the “IRF Lucia reporter activity” value with RAW-Dual [2] (setting [5]) stood at 0.856.
As to `Brc1ccc(CCCCn2ccnc2)cc1` (library stock concentration (final ~1000-fold dilution): 10 mM), the “IRF Lucia reporter activity” value in the assay with RAW-Dual [1] (setting [4]) was 0.855 and 0.877; in the assay with RAW-Dual [1] (agonist: LPS (TLR4) 0.1 ug/mL), 1.03 and 0.678.
Regarding `COc1ccc(C2OCC3C(c4cc(OC)c(OC)c(OC)c4)OCC23)cc1OC` (stereo not drawn) (library stock concentration (final ~1000-fold dilution): 10 mM), the “IRF Lucia reporter activity” value came to 1.1 in the assay on RAW-Dual [1] (setting [4]) and 0.811 with RAW-Dual [1] (agonist: LPS (TLR4) 0.1 ug/mL).
In the case of `COC1C(=O)C2(C)C(OC)CC3OCC3(OC(C)=O)C2C(OC(=O)c2ccccc2)C2(O)CC(OC(=O)C(O)C(NC(=O)OC(C)(C)C)c3ccccc3)C(C)=C1C2(C)C` (stereo not drawn) (library stock concentration (final ~1000-fold dilution): 10 mM), the “IRF Lucia reporter activity” value in the assay with RAW-Dual [1] (setting [4]) is 0.47; in the assay with RAW-Dual [1] (agonist: LPS (TLR4) 0.1 ug/mL), 0.528.
Regarding `COC1C(=O)C2(C)C(OC)CC3OCC3(OC(C)=O)C2C(OC(=O)c2ccccc2)C2(O)CC(OC(=O)C(O)C(NC(=O)OC(C)(C)C)c3ccccc3)C(C)=C1C2(C)C` (stereo not drawn), in the assay on RAW-Dual [2] (setting [5]), the “IRF Lucia reporter activity” value is 0.471.
As for `O=C(CCCN1CC=C(n2c(=O)[nH]c3ccccc32)CC1)c1ccc(F)cc1` (library stock concentration (final ~1000-fold dilution): 10 mM), the “IRF Lucia reporter activity” value in the assay with RAW-Dual [1] (setting [4]) was found to be 0.988; in the assay with RAW-Dual [1] (agonist: LPS (TLR4) 0.1 ug/mL) it was 1.44.
Consider `O=C(CCCN1CC=C(n2c(=O)[nH]c3ccccc32)CC1)c1ccc(F)cc1`, for which the “IRF Lucia reporter activity” value with RAW-Dual [2] (setting [5]) was determined as 1.12.
For `Cc1ccc(NC(=O)c2ccc(CN3CCN(C)CC3)cc2)cc1Nc1nc(-c2cccnc2)cs1` (library stock concentration (final ~1000-fold dilution): 10 mM), the “IRF Lucia reporter activity” value in the assay on RAW-Dual [3] (setting [4]) is 0.928; in the assay on RAW-Dual [3] (agonist: LPS (TLR4) 0.1 ug/mL), 0.441.
Turning to `Cc1ccc(NC(=O)c2ccc(CN3CCN(C)CC3)cc2)cc1Nc1nc(-c2cccnc2)cs1`, in the assay with RAW-Dual [2] (setting [6]), the “IRF Lucia reporter activity” value is 1.42.
For `CN(C)Cc1cccc(N/C(=C2\C(=O)Nc3cc(C(=O)N(C)C)ccc32)c2ccccc2)c1`, the “IRF Lucia reporter activity” value in the assay with RAW-Dual [2] (setting [5]) came to 0.786.
Consider `CN(C)Cc1cccc(N/C(=C2\C(=O)Nc3cc(C(=O)N(C)C)ccc32)c2ccccc2)c1` (library stock concentration (final ~1000-fold dilution): 10 mM), for which the entries for the “IRF Lucia reporter activity” value in the assay with RAW-Dual [1] (setting [4]) and in the assay on RAW-Dual [1] (agonist: LPS (TLR4) 0.1 ug/mL) were 0.681 and 0.823, respectively.
`O=C(Nc1cc(C(F)(F)F)ccc1N1CCCCC1)c1ccncc1` (library stock concentration (final ~1000-fold dilution): 10 mM): the “IRF Lucia reporter activity” value was found to be 1.05 in the assay with RAW-Dual [1] (setting [4]) and 0.874 with RAW-Dual [1] (agonist: LPS (TLR4) 0.1 ug/mL).
For the molecule `O=C(Nc1cc(C(F)(F)F)ccc1N1CCCCC1)c1ccncc1`, the “IRF Lucia reporter activity” value with RAW-Dual [2] (setting [5]) amounted to 1.18.
As for `COc1cc2nc(N3CCN(C(=O)c4ccco4)CC3)nc(N)c2cc1OC`, the “IRF Lucia reporter activity” value with RAW-Dual [2] (setting [5]) was 1.19.
With `COc1cc2nc(N3CCN(C(=O)c4ccco4)CC3)nc(N)c2cc1OC` (library stock concentration (final ~1000-fold dilution): 10 mM), the “IRF Lucia reporter activity” value with RAW-Dual [1] (setting [4]) is 0.816; in the assay on RAW-Dual [1] (agonist: LPS (TLR4) 0.1 ug/mL) it was 0.869.
`O=c1cc(-c2ccccc2)oc2cc(OC3OC(CO)C(O)C(O)C3O)c(O)c(O)c12` (stereo not drawn) (library stock concentration (final ~1000-fold dilution): 10 mM): the “IRF Lucia reporter activity” value in the assay on RAW-Dual [1] (setting [4]) stood at 0.862; with RAW-Dual [1] (agonist: LPS (TLR4) 0.1 ug/mL) it was 0.849.
Turning to `CN(C)CCSSCCNC(=O)C1CCN(C(=O)CSc2ccc(Cl)cc2)CC1.O=C(O)C(F)(F)F`, the “IRF Lucia reporter activity” value in the assay on RAW-Dual [2] (setting [5]) is 0.751.
As to `CN(C)CCSSCCNC(=O)C1CCN(C(=O)CSc2ccc(Cl)cc2)CC1.O=C(O)C(F)(F)F` (library stock concentration (final ~1000-fold dilution): 10 mM), the “IRF Lucia reporter activity” value in the assay on RAW-Dual [1] (setting [4]) came to 0.396; with RAW-Dual [1] (agonist: LPS (TLR4) 0.1 ug/mL), 0.778.
In the case of `O=C(O)c1cc2ccccc2[nH]1`, the “IRF Lucia reporter activity” value in the assay on RAW-Dual [2] (setting [5]) was determined as 1.1.
Take `O=C(O)c1cc2ccccc2[nH]1` (library stock concentration (final ~1000-fold dilution): 10 mM): the “IRF Lucia reporter activity” value came to 1.01 in the assay with RAW-Dual [1] (setting [4]) and 0.986 in the assay on RAW-Dual [1] (agonist: LPS (TLR4) 0.1 ug/mL).
As for `CC1(c2cc(-c3cncnc3)c(F)cc2F)CCSC(N)=N1` (stereo not drawn), the “IRF Lucia reporter activity” value with RAW-Dual [2] (setting [5]) came to 0.717.
